Source: the supplement of paper PMC10441789
The other results are listed elsewhere or left out. Antibody binding of pooled human sera (four to six donors per pool; dilution not stated) to peptides of the Trypanosoma cruzi antigen TSSA on microarrays. Quantile-normalised fluorescence in arbitrary units, mean of duplicate arrays; higher = more binding. No active / inactive call. The uninfected pools are read here as the healthy donors of the same country. The strongest signals lie near the top of the scale (about 60,000).

Legend:
Test in all cases: antibody binding signal (normalised fluorescence) (arbitrary fluorescence units); higher = stronger serum antibody binding to peptide
[1] = tested on: pooled sera of chronic Chagas disease patients, Argentina
Method: (§1)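 Microarray of overlapping 15-residue peptides of the four Trypanosoma cruzi TSSA reference variants and 8- to 13-residue peptides of TSSAII 24-62, probed with one serum pool per country.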

[2] = tested on: pooled sera of chronic Chagas disease patients, Bolivia
Method: as §1

[3] = tested on: pooled sera of chronic Chagas disease patients, Brazil
Method: as §1

[4] = tested on: pooled sera of chronic Chagas disease patients, Colombia
Method: as §1

[5] = tested on: pooled sera of chronic Chagas disease patients, Mexico
Method: as §1

[6] = tested on: pooled sera of chronic Chagas disease patients, USA
Method: as §1

[7] = tested on: pooled sera of uninfected people, Argentina
Method: as §1

[8] = tested on: pooled sera of uninfected people, Bolivia
Method: as §1

[9] = tested on: pooled sera of uninfected people, Colombia
Method: as §1

[10] = tested on: pooled sera of uninfected people, Mexico
Method: as §1

[11] = tested on: pooled sera of uninfected people, USA
Method: as §1

Sequence | antibody binding signal [1] | antibody binding signal [2] | antibody binding signal [3] | antibody binding signal [4] | antibody binding signal [5] | antibody binding signal [6] | antibody binding signal [7] | antibody binding signal [8] | antibody binding signal [9] | antibody binding signal [10] | antibody binding signal [11]
STPPSGTE | 9970 | 770 | 9220 | 99.8 | 130 | 74 | 72.6 | 157 | 69.9 | 87.9 | 55.8
EAPSQPGAS | 4780 | 32900 | 1960 | 111 | 80.6 | 318 | 490 | 994 | 572 | 159 | 1230
KPATGEAPSQPGASS | 45000 | 44700 | 50700 | 167 | 299 | 33800 | 818 | 809 | 128 | 237 | 206
TPPSGTEN | 38700 | 31500 | 26200 | 71.8 | 293 | 172 | 296 | 147 | 102 | 92.9 | 105
TAAGGTPSPSGASSG | 4320 | 183 | 319 | 269 | 1030 | 170 | 125 | 219 | 581 | 261 | 637
SQPGASSG | 2020 | 205 | 464 | 150 | 202 | 300 | 178 | 152 | 118 | 316 | 286
ENKPATGEAPSQP | 45500 | 48800 | 51300 | 305 | 486 | 41000 | 942 | 683 | 109 | 159 | 159
NGGSTSSTPPSG | 242 | 263 | 426 | 193 | 201 | 151 | 294 | 229 | 102 | 141 | 115
PATGEAPSQP | 46600 | 46800 | 45900 | 120 | 194 | 26700 | 721 | 121 | 119 | 110 | 120
PGASSGEAEASS | 157 | 113 | 6230 | 179 | 160 | 87.9 | 130 | 105 | 71.5 | 90.5 | 69.1
STPPSGTENKPA | 53200 | 49500 | 50300 | 368 | 11400 | 46200 | 8250 | 1450 | 909 | 575 | 984
TENKPATGEAPS | 47600 | 52900 | 51400 | 277 | 401 | 39200 | 987 | 795 | 135 | 239 | 204
TANGGSTISTPPSGT | 244 | 285 | 337 | 226 | 432 | 313 | 436 | 149 | 161 | 159 | 140
ATGEAPSQPGAS | 13800 | 39800 | 39100 | 721 | 974 | 12400 | 536 | 1140 | 380 | 239 | 1050
GGTPSPSGASSGEAE | 174 | 120 | 5850 | 199 | 1110 | 235 | 225 | 215 | 275 | 112 | 244
KPATGEAPSQ | 46700 | 53100 | 48300 | 252 | 216 | 37500 | 754 | 657 | 146 | 207 | 170
SGTENKPATG | 39200 | 26000 | 41000 | 390 | 876 | 8610 | 2180 | 2160 | 196 | 503 | 378
TANGGSTS | 214 | 175 | 255 | 117 | 280 | 717 | 145 | 146 | 130 | 194 | 585
NGGSTSSTPPSGTEN | 41200 | 42200 | 28000 | 217 | 253 | 274 | 483 | 194 | 149 | 142 | 157
PSQPGASSGE | 536 | 287 | 8620 | 95.5 | 308 | 164 | 80.4 | 115 | 111 | 555 | 90.5
STSSTPPSGTENK | 53700 | 52800 | 55300 | 738 | 7070 | 32000 | 2700 | 542 | 767 | 550 | 409
PGASSGEAEAS | 173 | 114 | 7920 | 112 | 159 | 95.8 | 206 | 131 | 84.1 | 83 | 177
GEAPSQPGAS | 4380 | 39100 | 9870 | 171 | 170 | 1560 | 437 | 1060 | 617 | 184 | 1270
SPSGASSGEAEASSN | 214 | 103 | 1380 | 183 | 502 | 1480 | 146 | 118 | 114 | 130 | 88.7
SGEAEASSNKNDGSL | 147 | 1130 | 2890 | 463 | 1360 | 1200 | 122 | 200 | 130 | 1550 | 785
ENKPATGEAPSQPGA | 45700 | 51300 | 48600 | 390 | 532 | 45700 | 1010 | 742 | 239 | 312 | 246
STSSTPPSGTEN | 40800 | 43400 | 28000 | 390 | 176 | 419 | 362 | 166 | 95.8 | 160 | 177
NGGSTSSTPPS | 183 | 277 | 296 | 213 | 186 | 161 | 258 | 229 | 127 | 145 | 144

Sequence | antibody binding signal [1] | antibody binding signal [2] | antibody binding signal [3] | antibody binding signal [4] | antibody binding signal [5] | antibody binding signal [6] | antibody binding signal [7] | antibody binding signal [8] | antibody binding signal [9] | antibody binding signal [10] | antibody binding signal [11]
QPGASSGEA | 1040 | 146 | 8100 | 123 | 128 | 83.8 | 135 | 111 | 84 | 142 | 90.4
GTENKPAT | 38300 | 12600 | 25200 | 2220 | 3790 | 9430 | 643 | 1450 | 199 | 146 | 219
AAGEAPSPSGASSGE | 361 | 214 | 2160 | 185 | 674 | 152 | 344 | 161 | 149 | 103 | 148
GSTSSTPPGTDKKTA | 1280 | 474 | 15100 | 6970 | 2620 | 20500 | 185 | 95.1 | 212 | 1040 | 293
EAPSQPGASSG | 11700 | 34400 | 1260 | 92.8 | 117 | 255 | 163 | 133 | 187 | 221 | 113
GSTSSTPPSG | 391 | 251 | 364 | 288 | 273 | 144 | 245 | 255 | 113 | 194 | 119
SACTTANGGSTSSTP | 539 | 236 | 730 | 473 | 262 | 312 | 216 | 228 | 239 | 175 | 131
ASSGEAEA | 150 | 113 | 269 | 268 | 157 | 63.5 | 122 | 108 | 105 | 86.6 | 90.1
TSSTPPSGTENKPAT | 48400 | 52900 | 54700 | 1700 | 5960 | 43100 | 6490 | 1170 | 754 | 461 | 974
TPPSGTDKKTAAGEA | 10100 | 16000 | 29300 | 3940 | 21600 | 1770 | 229 | 161 | 206 | 848 | 163
APSQPGASSGEA | 2220 | 1540 | 7540 | 265 | 2200 | 180 | 156 | 108 | 117 | 1250 | 118
PPSGTENKPATGEAP | 50900 | 50000 | 52000 | 458 | 7870 | 45600 | 6580 | 1410 | 460 | 488 | 834
NKPATGEAPSQPGAS | 29400 | 48600 | 49300 | 464 | 234 | 37600 | 1140 | 1160 | 470 | 309 | 1250
QPGASSGEAEA | 421 | 128 | 7870 | 128 | 123 | 88 | 141 | 108 | 91.4 | 90.8 | 73.4
GASSGEAEA | 163 | 124 | 2450 | 137 | 117 | 64.9 | 145 | 120 | 135 | 90.3 | 110
SSTPPGTDKKTAAGG | 2670 | 1180 | 6900 | 13200 | 6470 | 22000 | 164 | 96.9 | 203 | 1050 | 403
TSSTPPSGTEN | 39200 | 40700 | 28200 | 112 | 166 | 246 | 325 | 154 | 92.9 | 119 | 156
TSSTPPSGT | 364 | 253 | 398 | 228 | 238 | 236 | 120 | 114 | 86.9 | 171 | 77.2
SSTPPSGTENK | 54200 | 54400 | 54100 | 403 | 8450 | 31600 | 2980 | 630 | 891 | 420 | 506
ISTPPSGTEKKAAAG | 39700 | 3420 | 32400 | 873 | 11800 | 6910 | 1090 | 308 | 121 | 111 | 203
GGSTSSTPPSGT | 304 | 274 | 696 | 247 | 273 | 296 | 196 | 193 | 104 | 163 | 137
GASSGEAE | 181 | 118 | 2900 | 169 | 129 | 83.4 | 158 | 138 | 221 | 138 | 99.3
PATGEAPSQ | 41800 | 48700 | 44800 | 133 | 129 | 24700 | 723 | 132 | 91.8 | 101 | 96.7
TGEAPSQPGAS | 6840 | 37300 | 21200 | 179 | 577 | 2950 | 474 | 942 | 381 | 148 | 979
AGEAPSPSGASSGEA | 199 | 161 | 3610 | 299 | 523 | 174 | 389 | 134 | 109 | 103 | 245
SGTENKPATGEAPSQ | 43300 | 51900 | 51700 | 380 | 507 | 41600 | 1350 | 1190 | 142 | 315 | 176
PATGEAPSQPG | 41000 | 48200 | 45400 | 239 | 184 | 26900 | 668 | 131 | 170 | 143 | 129
